Data reported in paper PMC9512926.
Results are given in words; binding and its absence hold for the method and conditions named. In cells and extracts the contact can be indirect. Some entries that bind do so weakly or less than the wild type.

The chains behind the UniProt entries cited, without tags or fusion partners. Where a name states a change or a piece, a line headed by the entry shows the natural chain unless it says otherwise. Residues count along the entry.
UniProt P35637: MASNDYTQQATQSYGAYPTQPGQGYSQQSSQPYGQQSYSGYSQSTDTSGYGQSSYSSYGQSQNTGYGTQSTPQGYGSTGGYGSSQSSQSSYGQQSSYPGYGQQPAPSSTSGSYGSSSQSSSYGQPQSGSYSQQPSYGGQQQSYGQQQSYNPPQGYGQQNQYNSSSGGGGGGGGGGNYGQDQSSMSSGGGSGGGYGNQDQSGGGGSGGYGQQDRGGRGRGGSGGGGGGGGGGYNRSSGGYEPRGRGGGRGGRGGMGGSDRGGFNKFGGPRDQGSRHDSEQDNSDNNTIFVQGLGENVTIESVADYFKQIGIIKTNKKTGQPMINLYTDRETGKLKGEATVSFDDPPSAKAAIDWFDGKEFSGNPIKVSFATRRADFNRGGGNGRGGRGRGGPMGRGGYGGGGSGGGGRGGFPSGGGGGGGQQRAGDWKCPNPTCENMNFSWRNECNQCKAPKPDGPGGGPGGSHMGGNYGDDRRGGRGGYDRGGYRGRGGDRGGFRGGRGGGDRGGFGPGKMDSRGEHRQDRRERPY
FLAG-FUS 1–359: residues 1-359 of P35637

B1: DHX30, ATP-dependent RNA helicase (endogenous, HEK293A) (protein, UniProt Q7L2E3 1-1194)
chain: MFSLDSFRKDRAQHRQRQCKLPPPRLPPMCVNPTPGGTISRASRDLLKEFPQPKNLLNSVIGRALGISHAKDKLVYVHTNGPKKKKVTLHIKWPKSVEVEGYGSKKIDAERQAAAAACQLFKGWGLLGPRNELFDAAKYRVLADRFGSPADSWWRPEPTMPPTSWRQLNPESIRPGGPGGLSRSLGREEEEDEEEELEEGTIDVTDFLSMTQQDSHAPLRDSRGSSFEMTDDDSAIRALTQFPLPKNLLAKVIQIATSSSTAKNLMQFHTVGTKTKLSTLTLLWPCPMTFVAKGRRKAEAENKAAALACKKLKSLGLVDRNNEPLTHAMYNLASLRELGETQRRPCTIQVPEPILRKIETFLNHYPVESSWIAPELRLQSDDILPLGKDSGPLSDPITGKPYVPLLEAEEVRLSQSLLELWRRRGPVWQEAPQLPVDPHRDTILNAIEQHPVVVISGDTGCGKTTRIPQLLLERYVTEGRGARCNVIITQPRRISAVSVAQRVSHELGPSLRRNVGFQVRLESKPPSRGGALLFCTVGILLRKLQSNPSLEGVSHVIVDEVHERDVNTDFLLILLKGLQRLNPALRLVLMSATGDNERFSRYFGGCPVIKVPGFMYPVKEHYLEDILAKLGKHQYLHRHRHHESEDECALDLDLVTDLVLHIDARGEPGGILCFLPGWQEIKGVQQRLQEALGMHESKYLILPVHSNIPMMDQKAIFQQPPVGVRKIVLATNIAETSITINDIVHVVDSGLHKEERYDLKTKVSCLETVWVSRANVIQRRGRAGRCQSGFAYHLFPRSRLEKMVPFQVPEILRTPLENLVLQAKIHMPEKTAVEFLSKAVDSPNIKAVDEAVILLQEIGVLDQREYLTTLGQRLAHISTDPRLAKAIVLAAIFRCLHPLLVVVSCLTRDPFSSSLQNRAEVDKVKALLSHDSGSDHLAFVRAVAGWEEVLRWQDRSSRENYLEENLLYAPSLRFIHGLIKQFSENIYEAFLVGKPSDCTLASAQCNEYSEEEELVKGVLMAGLYPNLIQVRQGKVTRQGKFKPNSVTYRTKSGNILLHKSTINREATRLRSRWLTYFMAVKSNGSVFVRDSSQVHPLAVLLLTDGDVHIRDDGRRATISLSDSDLLRLEGDSRTVRLLKELRRALGRMVERSLRSELAALPPSVQEEHGQLLALLAELLRGPCGSFDVRKTADD
B2: DHX30, ATP-dependent RNA helicase (SH-SY5Y) (protein, UniProt Q7L2E3 1-1194)
chain: B1 chain

Assays:
[1] = molecular target: FLAG-FUS 1–359 (UniProt P35637); experiment: co-IP; FLAG-IP (anti-FLAG M2 affinity gel, 3 h, 4 °C) of lysates of transfected HEK293A cells; lysis buffer 50 mM Tris-HCl pH 7.4, 150 mM NaCl, 0.5% TritonX-100, 10% glycerol; Western blotting for DHX30; in one panel 10 μg/ml RNase A was added to the cleared lysates (interaction decreased)
[2] = molecular target: FLAG-FUS R521C (UniProt P35637); experiment: as above
[3] = molecular target: FLAG-FUS WT (fused in sarcoma, wild-type) (UniProt P35637); experiment: as above
[4] = molecular target: FLAG-FUS P525L (UniProt P35637); experiment: as above
[5] = molecular target: FLAG-FUS WT (fused in sarcoma, wild-type) (UniProt P35637); experiment: co-IP; FLAG-IP after subcellular fractionation of transfected HEK293A cells: mitochondrial and cytosolic compartments; Western blotting
[6] = molecular target: FLAG-FUS P525L (UniProt P35637); experiment: as above
[7] = molecular target: FLAG-FUS WT (SH-SY5Y, tetracycline-inducible stable line) (UniProt P35637); experiment: co-IP; FLAG-IP of SH-SY5Y cells with stable inducible expression of FLAG-FUS, 48 h post-induction; expression comparable to endogenous FUS; Western blotting
[8] = molecular target: FLAG-FUS P525L (SH-SY5Y, tetracycline-inducible stable line) (UniProt P35637); experiment: as above

Row | Binder | binding [1] | binding [2] | binding [3] | binding [4] | binding [5] | binding [6] | binding [7] | binding [8]
1 | B1 | no binding | binds | binds | binds | binds | binds |  | 
2 | B2 |  |  |  |  |  |  | binds | binds
